# Reference: the supplement of paper PMC11417369
# The other results are listed elsewhere or left out.
# Test system: PfAP2-HC AP2 domain (GST-tagged)
# Assay: gcPBM binding intensity (ln(normalized median fluorescence intensity)); higher = stronger DNA binding
# Procedure, shortened: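 Using an Agilent 4 × 180k array, primer-extended double-stranded 36-bp intergenic genomic probes and negative controls were exposed for 1 h to GST-fused P. falciparum DNA-binding domains expressed in E. coli. Binding was carried out in 1× PBS with 1% milk, 0.2 mg/ml BSA, 0.5% salmon testes DNA and 0.03% Triton X-100, and protein was detected with Alexa488 anti-GST antibody and a 488 nm scan. Binding intensity is the highest Masliner-normalised natural-log median intensity across replicate spots of either probe orientation.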
row,Sequence,gcPBM binding intensity (ln)
1,AAAAAAAAAGGTAACGCATGCTTTTAGATTATATTA [TGCATGCA_site398],9.47
2,TATAATTATATTTGGAGTACAAATTTTTTTTTTTTT [XGTACX_site7494],9.4
3,AAGTATGCTTGCTACTTATTAAGTGGCAATATAATT [XGTACX_negctrl_site74],9.44
4,TTTGTATAGTTGTAGGTGCATATCATTTTTAAATGT [GTGCAC_site9708],9.84
5,TGTTAATAAAGGTGTACACAAAATAAAAAAAATTAT [CACACA_site4288],9.93
6,AAATATATATGAAGATGTACATATATATATGTAAAT [XGTACX_site4039],9.87
7,TAACACTTATAAAAAAGTACTGATGAAATAATACTA [XGTACX_site7305],9.57
8,AAAAATTCCAGACACACACACACATATAAATAAATA [CACACA_site1232],11.1
9,AGAACCATATATAAATGTACATGTTAATATGAATAA [XGTACX_site130],9.74
10,GGACAAAAAAAAAAAATAAAATAAAAATAAATAAAT [XGTACX_negctrl_site106],9.36
11,ATTTATTAAATAAAAAGTACAAAATAAGAAAGAAGA [XGTACX_site6935],9.78
12,TTATATATATCTAATTGTACAATATTATGTTCATTA [XGTACX_site7479],9.66
13,ATATATAATATAATATGTACATAAAATTTTAACATT [XGTACX_site5773],9.93
14,AAAAAAACAGTGAATGCACACATTTAAGATCCATAT [CACACA_site3148],9.84
15,TATATTCCCTTAATCACACATAAATAAAAAAAAATA [CACACA_site6094],9.44
16,AAAAAAAAAAAAACTACACACATACAAATATTTATA [CACACA_site5430],9.94
17,AGTATACTCGGACACACACACACATATATATATATA [CACACA_site5031],11.7
18,TACATACATACAGGAGTGCATATATCACAATTATTA,9.65
19,TATTTCCTTTTTCTTGTTATTCATGAGAAAAAATGA [CACACA_negctrl_site482],9.26

row,Sequence,gcPBM binding intensity (ln)
1,GAAATTTTTAATGTGGTGCACAGGAAATTTTTTCTT,9.61
2,AAAATAATAATAGGCACACATATATATATATATATA [CACACA_site2058],9.78
3,ACGACTAAATATATGAGTACATATATATATAAATAT [XGTACX_site7522],9.71
4,AAGAATCATATTTAAACACACATACAGATATATATA [CACACA_site5787],9.79
5,TGCAAAAAATTCCACACACACACACCCATATAAATA [CACACA_site1230],10.5
6,TCTAAAATAAATAATGCATGTTAAAAAAAAATATAT [TGCATGCA_site562],9.6
7,AGTTATATGATTAATACACACAACAAATGTTTCTTC [CACACA_site1092],9.76
8,AATTTGGTGTGTGTAAAAGTATGTGTCTATATTTAT [GTGCAC_negctrl_site166],10.3
9,ATGTATGTTTATTACTATTTTGAGAATAGACTATAA [CACACA_negctrl_site1366],9.52
10,TTTCTTTATAAATTAATATTCACAACACAAAATATA [CACACA_negctrl_site450],9.39
11,AAGAAAATAAAAAATAAGCATAATATGATATGATAT [TGCATGCA_negctrl_site196],10.1
12,AAAAATTTGGCATACACACACACACCGACACAGACA [CACACA_site4489],10.5
13,GTGCATATAAGGAAGTGTACGAAAAAAAATATTCCA [XGTACX_site8490],9.58
14,CAAATATGTCTTATTCGTACACATATATATATATAT [XGTACX_site8817],9.79
15,AAAAAATACTTATAAAGTACTAATATATATAAGCAG [XGTACX_site743],9.74
16,TAATTAAAATTAAGAAGTACATTTTACTTTTAATGC [XGTACX_site5120],9.29
17,TATCATGTTTTTATGGTGCATGAAATCACACATTGA,9.49
18,GAGAAATTTATACATACACACATATATATATTATAT [CACACA_site4038],9.88
19,AATACAAACCAAAAAGTAAATACATCAACATGATCA [CACACA_negctrl_site140],9.74

row,Sequence,gcPBM binding intensity (ln)
1,TTTATTAATAAGAAATGTACACAAAATTATTTCCAA [XGTACX_site5970],9.49
2,ATAGAGTCATTCCTCACACACACGCTATATGAATAG [CACACA_site2047],10.5
3,CCTGAAATTTTATTATGTACATATTATAAAATGATT [XGTACX_site1434],9.47
4,TGGCACTAAAAAAATAAACACACAGATTTATATAAT [CACACA_site8386],9.74
5,ATAACCACATAAAATATAATTATATATATATATATA [CACACA_negctrl_site603],9.97
6,ATTCCTCCCATGGAATGTACTCATCAAATAAATAAA [XGTACX_site6543],9.31
7,TACACCATGATACATACACACAGACATATACTCATT [CACACA_site4708],9.96
8,TCCAAATGTTTGCGTTGTACTCTTTTTTTAAAACTA [XGTACX_site5148],9.73
9,AAATTTTCATGTGTTGCATGCTGAACTATTTTATCA [TGCATGCA_site856],9.76
10,AATAAAAAGGAAAGGTATATGTGTGCCCTTGTGTTA [TGCATGCA_negctrl_site83],9.91
11,AGTGGATGAGGACATACACACACACCGAAGTTGATA [CACACA_site9132],10.3
12,AAGGAATATATATACATACACACATATATATATATA [CACACA_site1665],9.89
13,AAAAAAAAAAAAAAAAAAAAAAATATATATATATAT [XGTACX_negctrl_site33],9.56
14,ATATAATAAATATATTGTACATATGAATCTACTAAA [XGTACX_site7610],9.57
15,TAAAAAATGATAGAAGTGCATAAAATAATATATATA [GTGCAC_site9904],9.82
16,TTTCTATTTCCTTCACATCTTTTCATCTTTTTTTTT [CACACA_negctrl_site1110],9.84
17,GACTTGAAGAAATAAGTGCAGAGTTTTATTTTAATT [GTGCAC_site9912],9.49
18,AAAAAATTCCTATATACACACACGCACATATTTATA [CACACA_site6192],10.2
